From PubChem BioAssay AID493208 (National Center for Advancing Translational Sciences (NCATS), 2011)
The campaign covered roughly 44,000 compounds. About 340 (0.77%) were called active. Not shown: some 5% with an inconclusive outcome. Calls come from the whole dose curve; as a rule, active = well fitted inhibition curve with a large enough effect; inconclusive = small, poorly fitted or top-dose-only effect; inactive = flat fitted curve, though single readings scatter. The list shows a part of the results.

Test: Acumen qHTS Assay for Inhibitors of the mTORC1 Signaling Pathway in MEF (Tsc2-/-, p53-/-) Cells: Sytravon; note: nearly all actives have a fitted effect of over 50% in size
Conditions: phospho-rpS6 immunofluorescence/PI, 24 h; series mostly up to 38.3 µM; activity change, negative = inhibition: at the top concentration
Source text: NIH Molecular Libraries Probe Production Centers Network [MLPCN] NIH Chemical Genomics Center [NCGC] MLPCN Grant: NS059428-01 Assay Submitter (PI): Blenis, John; Hoffman, Greg; Harvard University NCGC Assay Overview: The mammalian target of rapamycin (mTOR) is an intracellular serine/threonine kinase Aberrant regulation of mTOR signaling plays a causative role in a number of human diseases, including cancer, benign tumors such as lymphangioleiomyomatosis (LAM) and Tuberous Sclerosis Complex (TSC), and metabolic diseases such as diabetes and obesity. This project aims to identify inhibitors of ribosomal protein S6 (rpS6) phosphorylation. The phosphorylation of rpS6 is a key event downstream of mTOR activation. The assay uses a phospho-specific antibody of phospho-rpS6 to detect inhibitors of mTOR activation. Mutations in the Tsc1 and Tsc2 genes are the underlying genetic lesions responsible for TSC, causing constitutive activation of the mTORC1 pathway and leading to profound effects on cell metabolism. Aberrant metabolism in cancer has recently received significant attention as a target to develop therapeutic agents in the treatment of cancer.1 As Tsc2-/- cells have lost the ability to respond to energy and growth factor deprivation, these cells are unable to properly down regulate cellular biosynthetic processes in response to metabolic stress, and are thus extremely sensitive to glucose deprivation-induced death.2 A central goal of this project is to explore the unique cell survival and metabolic properties of cells with Tsc1 or Tsc2 by screening for compounds that selectively target the Tsc2-/- MEFs by screening both Tsc2-/- and WT MEF cell lines. We hope to better understand these aspects of TSC physiology in order to exploit them for therapeutic benefit.
NCGC Acumen Assay Protocol Summary: For quantitative high throughput analysis of mTORC1 signaling, we developed a cell-based assay for immuno-fluorescence based detection of rpS6 phosphorylation on the Acumen Explorer that will be used a platform for the primary small molecule screen. Mouse embryonic fibroblasts (MEFs) are cultured in 1536-well plates using DMEM + 10% FBS. Twenty-four hrs after plating, test compounds (solubilized in DMSO) are delivered and incubated with the cells for 24 hrs at 37 degree Celsius. Following the incubation, media with compound is aspirated and the cells are fixed in 4% paraformaldehyde (PFA) containing PBS + 0.2% TX-100. Next, PFA is aspirated, cells are washed two times with PBS plus 0.2% TX-100 and the cells are blocked for 1 hr at room temperature (blocking buffer: LiCOR Blocking Buffer plus 0.2% TX-100). […] Cells are washed two times with PBS plus 0.2% TX-100, and stained with 10 uM propidium iodide (PI) for 20-25 minutes for cell number measurement (1:500 dilution of Hoescht staining is also added for IN Cell imaging). The plates are scanned on the Acumen Explorer laser scanning instrument (TTP Labtech) using the 488nm laser for simultaneous excitation of the Alexa-488 and PI. […] The normalized phospho-S6 staining is calculated as the ratio of the integrated Alexa 488 intensity divided by the integrated PI intensity for the single concentration rapamycin control (7.5 nM) and DMSO columns. […] Inhibition of the pathway is defined based on the normalized phospho-S6 intensity in rapamycin treated cells. Active cells are defined as those with a normalized phospho-S6 staining above this threshold, and each treatment is reported as the % positive cells in the well, where thresholds are defined by selecting wells with the highest and lowest signal and differentiating between the % non-active and % active populations. In addition to the pathway specific phospho-S6 endpoint, the number of PI stained cells from the Acumen is recorded as a measure of cell viability. The primary screen was performed with a MEF cell line in a defined genetic background, Tsc2-/-, p53-/- cell line stably transfected with an empty vector control (Tsc2-/- MEF).
Potency is the fitted concentration of half-maximal effect.

SMILES	activity change, negative = inhibition	Potency
CCCCNC(=O)C1CCN(S(=O)(=O)CCC)CC1	inactive: 1.43%	–
COc1ccc(OC)c(CNC(=O)c2ccc(C)c(NC(=O)c3nsc4ccccc34)c2)c1	inactive: -0.945%	–
Cc1ccc(Cn2c(CNS(=O)(=O)c3cccc([N+](=O)[O-])c3)nc3cccnc32)cc1	inactive: 0.437%	–
COc1ccc(-c2cc(C)no2)cc1S(=O)(=O)Nc1c(C)cc(C)cc1C	inactive: -18.2%	–
CCOc1ccc(OCC)c(NS(=O)(=O)c2cc(-c3cnc(C)o3)ccc2OC)c1	inactive: 0%	–
Cc1nc2nncn2c(Nc2ccccc2)c1C	inactive: -4.26%	–
COc1ccc(OC)c(NC(=O)c2c(N3CCCC3=O)c3cc(OC)ccc3n2C)c1	inactive: -2.85%	–
CCOC(=O)c1c(-c2ccccc2)csc1NC(=O)c1cc(=O)c2ccc(C)cc2o1	inactive: -0.431%	–
CCc1nn2c(=O)cc(COC(=O)c3cccc(NC(=O)c4cccs4)c3)nc2s1	inactive: 0%	–
Cc1ccccc1-n1nc(CO)c(C(=O)NCc2cccnc2)n1	inactive: 4.63%	–
CCc1cccc(C)c1NC(=O)Cn1cnc2c1c(=O)n(C)c(=O)n2C	inactive: -4.58%	–
COCCNC(=O)Nc1cc(C(=O)NCc2ccc(C(C)C)cc2)ccc1N1CCCC1	inactive: 15.9%	–
COc1cc(C2NC(=O)c3c(sc4c3CCN(C)C4)N2)cc(Br)c1OC(=O)c1ccc(C)cc1 (configuration not stated)	inactive: -6.1%	–
CCOC(=O)C1CCN(C(c2ccc(SC)cc2)c2c(O)cc(C)n(Cc3ccco3)c2=O)CC1 (configuration not stated)	inactive: 0%	–
COC(=O)c1c(NC(=O)CCCOc2ccc(C(C)(C)C)cc2)sc2c1C(C(=O)OC)CC2 (configuration not stated)	inactive: -8.11%	–
CCc1ccc(CNC(=O)C(C)n2ccc3cc(S(=O)(=O)N4CCCCCC4)ccc32)cc1 (configuration not stated)	inactive: -3.6%	–
COc1ccc(N2CCN(C(=O)CCn3c(=O)[nH]c4cc(OC)c(OC)cc4c3=O)CC2)cc1	inactive: -6.05%	–
COc1cccc(C(=O)NCCc2csc(-c3ccc(Cl)cc3)n2)c1	inactive: 0.382%	–
Cc1cccc(NC(=O)CCS(=O)(=O)c2cccc3nsnc23)c1C	inactive: -0.053%	–
COc1ccccc1N1CCN(c2ncnc3onc(-c4ccc(F)cc4)c23)CC1	inactive: 0.625%	–
Cc1ccc(NC(=O)C2CCN(S(=O)(=O)c3ccc4[nH]c5c(c4c3)CCCCC5)CC2)cc1	inactive: -2.63%	–
CCOC(=O)CSC1=Nc2ccccc2C2=NC(CCC(=O)NCc3ccc(F)cc3)C(=O)N12 (configuration not stated)	inactive: 0.711%	–
O=C(NCc1cccc(F)c1)C1CCCN(C(=O)N2CCOc3ccccc32)C1 (configuration not stated)	inactive: 0.0257%	–
CC1CN(C(=O)N2CCC(C(=O)NCc3cccs3)CC2)c2cc(Cl)ccc2O1 (configuration not stated)	inactive: 10.3%	–

SMILES	activity change, negative = inhibition	Potency
Cc1ccc(C)c(NC(=O)C2CCCN(c3nc4ccccc4s3)C2)c1 (configuration not stated)	inactive: -2%	–
CCc1ccccc1NC(=O)C1CCN(S(=O)(=O)c2ccccc2)CC1	inactive: -17.8%	–
COc1ccc(CNC(=O)C(C)Sc2nc(-c3ccccc3)cc(C(F)(F)F)n2)cc1 (configuration not stated)	inactive: 4.88%	–
O=C(NC1CCCC1)c1ccc(CSc2nc3ccncc3n2Cc2cccc(F)c2)cc1	inactive: -8.79%	–
CCOc1cc(C(=O)NCc2ccc3c(c2)CCN3C(=O)c2ccc(F)cc2)cc(OCC)c1OCC	inactive: 1.44%	–
CCCCOc1ccc(C(=O)Nc2ccc3oc(-c4cccnc4)nc3c2)cc1	inactive: -0.667%	–
COc1ccc(OCC(=O)N2CCC(c3nc4ccccc4s3)CC2)cc1	inactive: -0.634%	–
O=C(COc1ccccc1Cl)OCc1cc(=O)n2nc(C3CCCCC3)sc2n1	inactive: -9.02%	–
Cc1ccc(CNC(=O)c2ccc3c(c2)c(C)c(C)n3Cc2ccccc2)o1	inactive: 4.35%	–
CCc1ccc(C(=O)c2cnc3ccc(F)cc3c2S(=O)(=O)c2ccccc2)cc1	–	active: 11.7 µM
CC(C)OCCCNC(=O)c1cn(C)c2ccc(S(=O)(=O)N3CCCCCC3)cc2c1=O	inactive: 0.999%	–
Cc1cccc(C(=O)Nc2ccc(-c3nc4ncccc4o3)cc2C)c1	inactive: -0.0052%	–
CCn1ccc2cc(S(=O)(=O)N3CCC(C(=O)NCCc4ccccc4Cl)CC3)ccc21	inactive: -2.45%	–
CC1Cc2cc(S(=O)(=O)NCCc3ccc(Cl)cc3)ccc2N1C(=O)C1CCC1 (configuration not stated)	inactive: -6.7%	–
COc1ccccc1Cn1cc(C(=O)c2ccc(Cl)cc2)c(=O)c2ccccc21	–	active: 3.29 µM
Cc1c2cnn(CC(=O)NCC(C)c3ccccc3)c(=O)c2c(C)n1Cc1cccc(Cl)c1 (configuration not stated)	inactive: -6.07%	–
Cc1cccc(S(=O)(=O)c2cn(Cc3ccccc3)c3cc(N4CCOCC4)c(F)cc3c2=O)c1	inactive: 1.01%	–
Cc1oc2ccc(O)c(CN3CCCC3)c2c1C(=O)Nc1ccccc1	inactive: -1.01%	–
Cc1ccc(-n2ncc(C(=O)NCc3cccs3)c2C2CCN(C(=O)OC(C)(C)C)CC2)cc1	inactive: 4.21%	–
CCc1cccc2c(-c3ccccc3)nc(SCC(=O)Nc3ccccc3OC)nc12	inactive: -4.22%	–
COc1ccccc1NC(=O)C(C)Sc1nnc2ccc3ccccc3n12 (configuration not stated)	inactive: 0%	–
Cc1ccc(CNC(=O)CN2C(=O)CCn3nc(-c4ccccc4)cc32)cc1	inactive: 6.65%	–
CCCCOc1ccc(C(=O)NCCc2csc(-c3cccc(F)c3)n2)cc1	inactive: -0.162%	–
